Results: the antibiotic and cytotoxicity screens of Wong et al. (2023)
Some of the results follow.

Assays:
HSkMC = human skeletal muscle cells; test: cytotoxicity call (relative viability < 0.9); details: 10 µM
HepG2 = test: cytotoxicity call (relative viability < 0.9); details: 10 µM
S. aureus RN4220 = test: growth inhibition call (relative growth <= 0.2); details: 50 µM

COc1cccc(-c2cnc3c(c2)C(=O)N([C@H](C)CO)C[C@H](C)[C@H](CN(C)Cc2cccc(C(F)(F)F)c2)O3)c1
inactive: cytotoxicity call (HSkMC) | cytotoxicity call (HepG2) | growth inhibition call (S. aureus RN4220)

COc1cnc(SC)n(C)c1=O
inactive: cytotoxicity call (HSkMC) | cytotoxicity call (HepG2) | growth inhibition call (S. aureus RN4220)

O=C(C[C@@H]1CC[C@@H]2[C@H](COC[C@@H](O)CN2S(=O)(=O)c2cccc(F)c2)O1)NCc1ccc2c(c1)OCO2
inactive: cytotoxicity call (HSkMC) | cytotoxicity call (HepG2) | growth inhibition call (S. aureus RN4220)

C[C@@H]1CN([C@@H](C)CO)C(=O)c2cc(NS(=O)(=O)c3ccc(F)cc3)ccc2O[C@@H]1CN(C)Cc1ccc(Cl)c(Cl)c1
inactive: cytotoxicity call (HSkMC) | cytotoxicity call (HepG2) | growth inhibition call (S. aureus RN4220)

O=C(O)c1cc2c([nH]c1=O)CCCC2
inactive: cytotoxicity call (HSkMC) | cytotoxicity call (HepG2) | growth inhibition call (S. aureus RN4220)

C[C@H]1CN([C@@H](C)CO)C(=O)c2cccc(NC(=O)Nc3ccc4c(c3)OCO4)c2O[C@@H]1CN(C)Cc1ccc(C(F)(F)F)cc1
inactive: cytotoxicity call (HSkMC) | cytotoxicity call (HepG2) | growth inhibition call (S. aureus RN4220)

C[C@@H]1CN([C@@H](C)CO)S(=O)(=O)c2ccc(C#CC(C)(C)O)cc2O[C@@H]1CN(C)Cc1ccc(F)cc1
inactive: cytotoxicity call (HSkMC) | cytotoxicity call (HepG2) | growth inhibition call (S. aureus RN4220)

O=C(C[C@H]1CC[C@H](NC(=O)c2cccnc2)[C@H](CO)O1)NCCN1CCCCC1
inactive: cytotoxicity call (HSkMC) | cytotoxicity call (HepG2) | growth inhibition call (S. aureus RN4220)

C[C@@H]1CN([C@H](C)CO)C(=O)c2cc(NS(=O)(=O)c3cccs3)ccc2O[C@@H](C)CCCCO[C@@H]1CN(C)Cc1ccc(C(=O)O)cc1
inactive: cytotoxicity call (HSkMC) | cytotoxicity call (HepG2) | growth inhibition call (S. aureus RN4220)

CN1CC2(CCC1=O)CCN(C(=O)c1cc(=O)n(C)c(=O)n1C)CC2
inactive: cytotoxicity call (HSkMC) | cytotoxicity call (HepG2) | growth inhibition call (S. aureus RN4220)

C[C@@H]1CCCCO[C@@H](CN(C)C(=O)CCC(F)(F)F)[C@@H](C)CN([C@@H](C)CO)C(=O)c2cc(NC(=O)c3ccccc3)ccc2O1
inactive: cytotoxicity call (HSkMC) | cytotoxicity call (HepG2) | growth inhibition call (S. aureus RN4220)

C[C@H]1CCCCO[C@H](CN(C)C(=O)Nc2ccc(F)cc2)[C@@H](C)CN([C@@H](C)CO)C(=O)c2cc(NC(=O)Cc3ccccc3)ccc2O1
inactive: cytotoxicity call (HSkMC) | cytotoxicity call (HepG2) | growth inhibition call (S. aureus RN4220)

C[C@@H]1CN([C@H](C)CO)C(=O)c2cc(-c3cccnc3)cnc2O[C@H]1CN(C)C(=O)Nc1ccc2c(c1)OCO2
inactive: cytotoxicity call (HSkMC) | cytotoxicity call (HepG2) | growth inhibition call (S. aureus RN4220)

COc1ccc(NC(=O)Nc2cccc3c2O[C@@H](CN(C)CC2CCCCC2)[C@H](C)CN([C@H](C)CO)C3=O)cc1
inactive: cytotoxicity call (HSkMC) | cytotoxicity call (HepG2) | growth inhibition call (S. aureus RN4220)

C[C@@H]1CN([C@@H](C)CO)C(=O)c2cc(-c3ccc(C(=O)N(C)C)cc3)cnc2O[C@@H]1CN(C)C(=O)c1ccncc1
inactive: cytotoxicity call (HSkMC) | cytotoxicity call (HepG2) | growth inhibition call (S. aureus RN4220)

COCCN1CCO[C@@H]2CN(Cc3cnn(C)c3)C[C@@H]21
inactive: cytotoxicity call (HSkMC) | cytotoxicity call (HepG2) | growth inhibition call (S. aureus RN4220)

Cn1nccc1N
inactive: cytotoxicity call (HSkMC) | cytotoxicity call (HepG2) | growth inhibition call (S. aureus RN4220)

Cc1ccc(S(=O)(=O)N[C@H]2CC[C@H](CC(=O)N3CCC(Cc4ccccc4)CC3)O[C@@H]2CO)cc1
inactive: cytotoxicity call (HSkMC) | cytotoxicity call (HepG2) | growth inhibition call (S. aureus RN4220)

O=C1[O][Bi]([OH])[O]c2ccccc21
inactive: cytotoxicity call (HSkMC) | cytotoxicity call (HepG2) | growth inhibition call (S. aureus RN4220)

COCC(=O)Nc1ccc2c(c1)OC[C@H](C)N(Cc1ccccc1F)C[C@H](C)[C@@H](OC)CN(C)C2=O
inactive: cytotoxicity call (HSkMC) | cytotoxicity call (HepG2) | growth inhibition call (S. aureus RN4220)

C[C@H]1CN([C@@H](C)CO)C(=O)c2cc(NC(=O)Cc3cn(C)c4ccccc34)ccc2O[C@@H]1CN(C)C(=O)Nc1cccc2ccccc12
inactive: cytotoxicity call (HSkMC) | cytotoxicity call (HepG2) | growth inhibition call (S. aureus RN4220)

O=C(C[C@@H]1CC[C@@H](NC(=O)c2cnccn2)[C@@H](CO)O1)NCc1ccccc1F
inactive: cytotoxicity call (HSkMC) | cytotoxicity call (HepG2) | growth inhibition call (S. aureus RN4220)

CC(=O)N(C)C[C@H]1Oc2ncc(C#C[C@@H](C)O)cc2C(=O)N([C@@H](C)CO)C[C@@H]1C
inactive: cytotoxicity call (HSkMC) | cytotoxicity call (HepG2) | growth inhibition call (S. aureus RN4220)

Cc1nn(-c2nc3c(c(=O)n(CC(N)=O)c(=O)n3C)n2C)c(C)c1C
inactive: cytotoxicity call (HSkMC) | cytotoxicity call (HepG2) | growth inhibition call (S. aureus RN4220)

Cc1noc(C)c1NC(=O)Nc1ccc2c(c1)C(=O)N([C@H](C)CO)C[C@H](C)[C@@H](CN(C)C(=O)Nc1cccc3ccccc13)OCCCC[C@H](C)O2
inactive: cytotoxicity call (HSkMC) | cytotoxicity call (HepG2) | growth inhibition call (S. aureus RN4220)

C[C@@H]1CN([C@@H](C)CO)S(=O)(=O)c2ccc(C#CC3(O)CCCC3)cc2O[C@H]1CN(C)C(=O)Cc1ccncc1
inactive: cytotoxicity call (HSkMC) | cytotoxicity call (HepG2) | growth inhibition call (S. aureus RN4220)

COCC#Cc1ccc2c(c1)O[C@@H](CN(C)C(=O)COC)[C@H](C)CN([C@H](C)CO)S2(=O)=O
inactive: cytotoxicity call (HSkMC) | cytotoxicity call (HepG2) | growth inhibition call (S. aureus RN4220)

C[C@@H]1CN([C@@H](C)CO)C(=O)Cc2cc(NS(C)(=O)=O)ccc2O[C@@H]1CN(C)S(=O)(=O)c1cccs1
inactive: cytotoxicity call (HSkMC) | cytotoxicity call (HepG2) | growth inhibition call (S. aureus RN4220)
